± gives the standard deviation of the averaged measurements. The full ranking holds about 33,000 sequences; the median of “E-score (dimensionless, -0.5 to 0.5)” is about -0.046, and the highest 2% start at about 0.36. Some of the results follow.
Tested on: T1, SpTbr T-box DNA-binding domain (GST fusion)
T1 sequence: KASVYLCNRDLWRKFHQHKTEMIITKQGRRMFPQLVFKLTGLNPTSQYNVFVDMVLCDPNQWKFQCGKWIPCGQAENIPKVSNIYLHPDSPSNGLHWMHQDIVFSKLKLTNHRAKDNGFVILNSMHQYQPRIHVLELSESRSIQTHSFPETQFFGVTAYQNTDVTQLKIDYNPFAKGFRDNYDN
Test: PBM E-score of 8-mer (E-score (dimensionless, -0.5 to 0.5)); Tbr is Tbrain of the sea star Patiria miniata (Pm) or the sea urchin Strongylocentrotus purpuratus (Sp); higher = stronger binding preference; most listed sequences are background and not binding sites
Details: the construct has about 5 more residues each side
Procedure, shortened: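 Each ungapped 8-mer received an enrichment E-score from the Universal PBM Analysis Suite, averaged over duplicate arrays. The proteins were Tbr T-box DNA-binding domains, covering the whole T-box plus about five flanking residues, fused to GST and expressed in BL21 E. coli at 20 °C before glutathione affinity purification. Universal Agilent oligonucleotide arrays were made double-stranded by primer extension and incubated with 200 nM protein in PBS (pH 7.5). The arrays were then scanned and quantified, and every 8-mer was scored from probe intensities.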

Sequence | PBM E-score of 8-mer
AGGCCCCG | -0.336 ± 0.076
AGAGCTCA | -0.259 ± 0.015
ACCTCATA | 0.0747 ± 0.065
ATGTGTAG | 0.172 ± 0.033
CTCGTGTA | 0.104 ± 0.059
GCGATCGC | 0.225 ± 0.084
GGAGGTAA | -0.0439 ± 0.016
GGCTTGAC | -0.144 ± 0.0024
ACAATGAA | 0.0132 ± 0.019
CGCTGTGA | 0.18 ± 0.031
AGCCGGTA | -0.204 ± 0.063
CCCCCCAG | -0.252 ± 0.012
GGGACAGA | -0.0619 ± 0.054
GATTACAA | 0.0735 ± 0.066
ATTGGTCG | -0.00924 ± 0.073
CGCGACGC | 0.255 ± 0.012
TCAAGCGA | -0.118 ± 0.033
CCGGCGCA | -0.0724 ± 0.082
CAAGACAC | 0.208 ± 0.0069
CGTACTCA | -0.0533 ± 0.076
CTTGCAAG | 0.307 ± 0.067
ATAGCGTA | -0.0756 ± 0.043

Sequence | PBM E-score of 8-mer
ATATGTTA | -0.0895 ± 0.045
TACCCTGA | -0.0881 ± 0.033
CTGACGAC | 0.113 ± 0.065
ACAGCATC | -0.105 ± 0.063
AATGAGGA | -0.334 ± 0.058
ATTAATTG | -0.0252 ± 0.042
ACGTTCCC | -0.171 ± 0.095
CCAATAGC | -0.00878 ± 0.043
CTGGACAG | 0.00212 ± 0.036
ATGGGAAG | -0.151 ± 0.031
AACTTGTG | 0.196 ± 0.018
AGAATCTA | -0.011 ± 0.1
CGTCCAAA | -0.0151 ± 0.0085
AAACGATA | -0.00843 ± 0.11
ATTTTAGG | -0.2408 ± 0.00085
CGGAGGAC | -0.212 ± 0.039
AACGGGTA | 0.126 ± 0.038
AAAAGTAG | -0.241 ± 0.038
CACCGACA | 0.286 ± 0.031
AGAGTGAG | 0.13 ± 0.016
ACTTGTCA | 0.4189 ± 0.00086
AGCAAGAC | -0.162 ± 0.034

Sequence | PBM E-score of 8-mer
ACACGCCG | 0.232 ± 0.0089
GTGCCCGA | 0.0234 ± 0.045
AAGTACTG | -0.169 ± 0.014
AAACACAA | 0.0536 ± 0.043
AGACGCGA | 0.078 ± 0.074
CTTGCGTA | -0.0442 ± 0.028
ACATCCCG | 0.11 ± 0.014
GCAGAAAC | -0.138 ± 0.0036
AGATCGCG | 0.316 ± 0.011
AAGTTACG | -0.151 ± 0.01
GACACGCA | 0.0676 ± 0.044
ACTAAAAG | 0.00605 ± 0.11
GCTAGATA | -0.123 ± 0.045
TATAGTCA | 0.0371 ± 0.032
GTATGGTA | -0.228 ± 0.018
CCAGACTC | -0.269 ± 0.021
AAGCTGAG | -0.052 ± 0.032
CTAAGAGA | -0.216 ± 0.017
CGAGAACC | 0.184 ± 0.018
CCCCTAGG | -0.0502 ± 0.012
GAGAGCAC | 0.0632 ± 0.013
GACAGTAC | -0.0333 ± 0.049

Sequence | PBM E-score of 8-mer
GAATCTAC | -0.235 ± 0.048
CTTAGTTC | -0.216 ± 0.048
ACCGTTCT | 0.0197 ± 0.05
AAGACGGC | 0.115 ± 0.0055
GAGTGCAA | 0.0398 ± 0.012
TCAAAGGA | -0.189 ± 0.035
CGCAATGC | 0.0511 ± 0.0051
ACCACAGT | 0.0252 ± 0.11
ATGTTATG | -0.0111 ± 0.033
GTAGATAC | -0.268 ± 0.076
CACCACTA | 0.181 ± 0.013
CAGGACCC | -0.238 ± 0.028
CGCAGTGA | -0.0257 ± 0.037
ATTGTAAC | 0.0531 ± 0.038
CCAGGACG | -0.125 ± 0.059
GCAGGTCC | -0.259 ± 0.039
CCACGAAC | 0.0807 ± 0.05
ACATGACG | 0.135 ± 0.029
CAAAATTA | 0.1946 ± 0.0015
CCCCAAGG | 0.192 ± 0.0075
CTGCTTCA | 0.0128 ± 0.0049
CCAACTGA | -0.103 ± 0.0021

Sequence | PBM E-score of 8-mer
AAACATGT | 0.00992 ± 0.11
CGTCATAA | -0.00366 ± 0.035
AAATCCAC | -0.0225 ± 0.078
GTTGCACA | 0.0981 ± 0.012
ATTCACAG | 0.395 ± 0.025
ATGAGAGG | -0.118 ± 0.006
AGCCCGTA | -0.124 ± 0.097
ACGAAGAA | -0.169 ± 0.0023
AGAGCTTG | -0.238 ± 0.017
GTACGATA | -0.21 ± 0.017
AACGTTTA | -0.187 ± 0.062
GCCACTCC | -0.0728 ± 0.039
ACGGAATA | 0.107 ± 0.0055
ACGCCGGA | -0.047 ± 0.017
CCCGTCGC | 0.0384 ± 0.034
AAACACCC | 0.1718 ± 0.0003
AGACTTTG | -0.0212 ± 0.042
AGGGGGGG | -0.281 ± 0.018
ACTGCTAG | 0.0381 ± 0.029
AATTTTGA | -0.127 ± 0.033
GATCAGTA | -0.163 ± 0.029
